# The RNAGym collection of RNA variant scans (doi:10.1073/pnas.2313332121)
# Variants at the background level are over-represented here.
# B1: TPR 5TU (parent)
# chain: GGAUCUUCUCGAUCUAACAAAAAAGACAAAUCUGCCACAAAGCUUGAGAGCAUCUUCGGAUGCAGAGGCGGCAGCCUUCGGUGGCGCGAUAGCGCCAACGUUCUCAACUAUGACACGCAAAACGCGUGCUCCGUUGAAUGGAGUUUAUCAUG
# Variants of: B1
# Assay: polymerase ribozyme fitness, log enrichment relative to wild type (log ratio); higher = more active; in vitro selection for triplet polymerase activity
# How it was run: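 Each subunit of a heterodimeric triplet polymerase ribozyme was mutagenized into a library by PCR, transcribed, and subjected to one round of in vitro selection, run in triplicate. Libraries were annealed with a biotinylated primer, the partner subunit and triplets, incubated frozen at −7 °C, and extended constructs were gel-excised, captured on streptavidin beads and recovered by RT-PCR. Input and output libraries were sequenced on Illumina, keeping genotypes with ≥10 input reads and ≥1 read per output. Fitness is log base 2 of genotype enrichment divided by wild-type enrichment, from inverse-variance-weighted replicate averages.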
row,Variant,polymerase ribozyme fitness (log ratio)
1,GGAUCUUCUCGAUCUCACAAAAAAGACAAAUCUGCCACAAAGCUUGAGAGCAUCUUCGGAUGCAGAGGCGGCAGCCUUCGGUGGCGCGAUAGCGCCAACGUUCUCAACUUUGACACGCAAAACGCGUGCUCCGUUUAAUGGAGUUUAUCAUG [A16C A110U G136U],≤ -4.2
2,GGAUCUUCUCGAUCUCAGAAAAAAGACAAAUCUGCCACAAAGCUUGAGAGCAGCUUCGGAUGCAGAGGCGGCAGCCUUCGGUGGCGCGAUUGCGCCAACAUUCUCAACUAUGACACGCAAAACGCGUGCUCCGUUGAAUGGAGUUUAUCAUG [A16C C18G U53G A91U G100A],≤ -4.2
3,GGAUCUUCUCGAUCUCACAAAAAAGAAAAAUCUGCGACAAAGCUUGAGAGCAUCUUCGGAUGCAGAGGCGGCAGCCUUCGGUGGCGCGAUAGCGCCAAAGAUCUCAACUAUGACACGCAAAACGCCUGCUCCGUUGAAUGGAGUUUAUCAUG [A16C C27A C36G C99A U101A G126C],≤ -4.2
4,GGAUCUUCUCGAUCUCACAAAAAAGAGAAAUCUGCCACAAAGCUUGAGAGCAAAUUCGGAUGCAGAGGCGGCAACCUUCGGUGGCGCGAUAGCACCAACGUUCUCAACUAUGACACGCAAAACGCGUGCUCCGUUGAAUGGAGUUUAUCAUG [A16C C27G U53A C54A G74A G94A],≤ -4.2
5,GGAUCUUCUCGAUCUCACAAAAAAGAUAAAUCUGCCACAAAGCUUGAGAGCAUCAUCGGAUGCAGAGGCGGCAGCCUUCGGUGGCGCGAUAGCGCCAACGUUCUCAACUAUGCCAGGCAAAACGCGUGCUCCGUUGCUUGGAGUUUAUCAUG [A16C C27U U55A A113C C116G A137C A138U],≤ -4.2
6,GGAUCUUCUCGAUCUCACAAAAAAGACAAAUGUGCCACAAAGCUUGAGAGCAUCUGCGGAUGGAGAGGCGGCAGCCUUCGGUGGCGCGAUAGCGCCAACGUUCUCAACUAUGACACGCAAAACGCGUGCUCCGUUGAAUGGAGUUUAUCAUG [A16C C32G U56G C63G],≤ -4.2
7,GGAUCUUCUCGAUCUCACAAAAAAGACAAAUUUGCCACAAAACUUGAGAGCAUCUUCGUAUGCAGAGGCGGCAGCCUUCGGUGGCGCGAUAACGCCAACGUUCUCAACUAUGACACGCAAAAGGCGUGCUCCGUUGAAUGGAGUUUAUCAUG [A16C C32U G42A G59U G92A C123G],≤ -4.2
8,GGAUCUUCUCGAUCUCACAAAAAAGACAAAUCUGACACAAAGCUUGAGAGCAUCUUCGGAUGCAGAGGCGGCAGCCUUCGGUGGCGAGAUAGCGCCAACGUUCUCAACUAUGACACGCAAAACGCGUGCUCCGUUGAAUGGAGUUUAUCCUG [A16C C35A C87A A150C],≤ -4.2
9,GGAUCUUCUCGAUCUCACAAAAAAGACAAAUCUGGCACAAAGCUUGAGAGCAUCUUCGGAUGCAGAGUCGGCAGCCUUCGGUGGCGCGAUAGCGCCAACGUUCUCAACGAUGACACGCAAAACGCGUGCUCCGUUGAAUGGAGUUUAUCAUG [A16C C35G G68U U109G],≤ -4.2
10,GGAUCUUCUCGAUCUCACAAAAAAGACAAAUCUGGCACAAAGCUUGAGAGCAUCUUCGGAUGCAGAGGCGGCAGCCUUCGGUCGCGCGAUAGCGCUAACGCUCUCAACUAUGACACGCAAAACGCGCGCUCCGUUGAAUGGAGUUUAUCAUG [A16C C35G G83C C96U U101C U127C],≤ -4.2
11,GGAUCUUCUCGAUCUCACAAAAAAGACAAAUCUGCAACAAAGCUUCAGAGCAUCUUCGGAUGCAGAGCCGGCAGCCUUCGGUGGCGCGAUAGUGCCAACGUUCUCAACUAUUACCCGCAAAUCGCGUGCUCCGUUGAAUGGAUUUUAUCAUG [A16C C36A G46C G68C C93U G112U A115C A122U G143U],≤ -4.2
12,GGAUCUUCUCGAUCUCACAAAAAAGACAAAUCUGCAACAAAGCUUGAGAGCAUCUUCGGAUGCAGAGGCGGCAGCCUACGGUGGCGCGAUAGCACCAACGUUCUCAACUAUGACACGCAAAACGCGCGCUCCGCUGAAUGGAGUUUAUAAUG [A16C C36A U78A G94A U127C U134C C149A],≤ -4.2
13,GGAUCUUCUCGAUCUCACAAAAAAGACAAAUCUGCUACAAAGCUUGAGAGCAUCUUCGCAUGCAGAGGCGGCAGCCUUCGGUGGCGCGAUAGCGCCAACGUUCUCAACUAUGACACGCAAAACGCGUGCUCCGUUGAAUGGAGUUUAUCAUG [A16C C36U G59C],-2.53
14,GGAUCUUCUCGAUCUCACAAAAAAGACAAAUCUGCCAUAAAGCUUGAGAGCAUCUUCGGAUGCGGAGGCGGCAGCCUUCGGUGGCGCGAUAGCUCCAAUGUUCUCAUCUAUGACACGGAAAACGCGUGCUCCGUUGAAUGGAGUUUAUCAUG [A16C C38U A64G G94U C99U A107U C118G],≤ -4.2
15,GGAUCUUCUCGAUCUCACAAAAAAGACAAAUCUGCCACAAAGAUUGAGAGCAUGAUCGGAUGCAGAGGCGGCAGCCUUCGGUGGCGAGAUAGCGCCAACGUUCUCAACUAUGACACGCAAAACACGUGCUCCGUUGAAUGGAGUUUAUCAUG [A16C C43A C54G U55A C87A G124A],≤ -4.2
16,GGAUCUUCUCGAUCUCACAAAAAAGACAAAUCUGCCACAAAGUUUGAGAACAUCUUCGGAUGCAGAGGCGGCAGCGUUCAGUGGCGCGAUAGAGCCAACGUUUUCAACUAUGACACGCAAAACGCGUGCUCCGUUGAAUGUAGUUUAUCAAG [A16C C43U G50A C76G G80A C93A C103U G141U U151A],≤ -4.2
17,GGAUCUUCUCGAUCUCACAAAAAAGACAAAUCUGCCACAAAGCUUGAGAGAGGCUUCGGAUGCAGAGGCGGCAGCCUUCGGUGGUGCGAUAGCGCCAACGUUCUCAACAAUGACACGCAAAACGCGUGCUCCGUUGAAUGGAGUUUAUCAUG [A16C C51A A52G U53G C85U U109A],≤ -4.2
18,GGAUCUUCUCGAUCUCACAAAAAAGACAAAUCUGCCACAAAGCUUGAGAGCAUAUUCGGAUGCAGAGGCGGCAGCCUUCGGUGGCGCGAUUUCGCCAACGUUCUCAACUAUGAUACGCAAAACGCGUGCUCCGAUGAAUGGAGAUUAUCAUG [A16C C54A A91U G92U C114U U134A U144A],≤ -4.2
19,GGAUCUUCUCGAUCUCACAAAAAAGACAAAUCUGCCACAAAGCUUGAGAGCAUGUUCGGAUGCAGAGGCGGCAGCCGUCGGUGGUGCGAUAGCGCCAACGUUCUCAACUAUGACACGCAAAACGCGUGCUCCGUCGAAUGGAGUUUAUCAUG [A16C C54G U77G C85U U135C],≤ -4.2
